Key:
[1] = biological target: T1, CXCR4 (Homo sapiens, UniProt P61073); assay: Interference with ligand binding: IgG binding to CCRF-CEM cells without and with SDF-1α
T1 construct: CRL-1596 (Ramos); host or cells: Ramos, Jurkat 6E-1, CCRF-CEM
Experimental: CCRF-CEM were maintained as described above.
Cells of the natural CXCR4^+ expressing cell line CCRF-CEM were harvested from the culture flasks, washed 2 times with PBS supplemented with 0.2% BSA and 0.09% NaN3 buffer and aliquoted at 1×10^5 cells per well into V-shaped 96-well plates (Greiner Bio-One, Frickenhausen, Germany). Cells were pelleted by centrifugation (350 g, 5 min) and then incubated for 60 min at 4° C. with 4, 1, 0.5 μg SDF-1α (PeproTech EC, London, UK) and 50 μl IgG diluted to 2 μg/ml in PBS supplemented with 0.2% BSA and 0.09% NaN3 buffer, both added at the same time to the cells. Samples without ligand served as control. The supernatants were aspirated after a centrifugation step at 350 g for 5 min and the cells were washed another two times with 150 μl PBS supplemented with 0.2% BSA and 0.09% NaN3 and centrifugation steps (5 min at 350 g) before being stained with RPE-conjugated goat anti-human IgG (AbD seroTec #204009) diluted to 2.5 μg/ml in with PBS supplemented with 0.2% BSA and 0.09% NaN3 and incubated for 30 minutes at 4° C. The cells were washed again and re-suspended in 200 μl PBS with 0.2% BSA and 0.09% NaN3 and transferred to a U-shaped 96-well plate (Corning) for flow cytometry using an EasyCyte device (Guava Technologies, Hayward, Calif., USA).

[2] = biological target: T1, CXCR4; assay: Inhibition of SDF-1α ligand-induced migration of CCRF-CEM cells (Boyden chamber); type: cell-based
Experimental: The anti-GFP scFv fragment was used as a negative control and anti-cMyc antibody was used for cross-linking both scFvs to mimic the effect of the antibodies in IgG format.
CCRF-CEM cells were maintained as described above.
CCRF-CEM target cells were sedimented by centrifugation and washed twice in RPMI-1640 culture medium without FCS. The cell density was then adjusted to 1×10^6 cells/ml and 60 ml of this suspension was mixed with 38 μl BATDA [bis(acetoxymethyl) 2,2′:6′,2″-terpyridine-6,6″-dicarboxylate] (Perkin Elmer, Waltham, Mass.). The cells were incubated with BATDA at 37° C. for 20 min with mixing by gently inverting the vessel every 10 min. The cells were washed three times in RPMI-1640 with 20% FCS, and then re-suspended in RPMI-1640/20% FCS to a final density 2×10^7 cells/ml. […] Anti-GFP scFv was used at 32 μg/ml as a negative control in combination with 20 μg/ml anti-cMyc antibody. In parallel, 30 μl of RPMI containing 0.15 nM SDF-1α ligand was added into the lower compartment of a ChemoTX 96 well Boyden chamber plate (Neuro Probe, Gaithersburg, Md.). 50 μl of the antibody-coated BATDA-labelled cells were then added to the upper compartment of the ChemoTX 96 chamber plate and incubated in presence at 37° C. for 2.5 hr. The cells above the filter were then removed and the filter was washed with PBS followed by centrifugation of the plate to collect all the cells in the lower chamber before removing the filter. The plate was then inverted on the top of a V-shaped plate followed by centrifugation. […] The samples were transferred to a black 96-well microtiter plate, mixed with 200 μl Europium Solution (Perkin Elmer), and analyzed for fluorescence (excitation at 340 nm, emission at 613 nm, lag-time 0.4 ms and integration time 0.4 ms) using a TECAN M200 plate reader. For each antibody concentration, the ratio of signals in presence/absence of scFv and the percentage of migration inhibition was calculated. The data were plotted and analysed by non-linear regression curve fit using the “log(inhibitor) vs. response” model of software Prism (GraphPad).

[3] = biological target: T1, CXCR4; assay: Interference with ligand binding: scFv binding to Jurkat and Ramos cells without and with SDF-1α or AMD3100; details: transfected and naturally CXCR4 expressing cells
Description: One molecule is SDF-1, the natural ligand to CXCR4, the other one is AMD3100, a peptide derived highly specific competetive inhibitor to SDF-1α binding to CXCR4.
Jurkat and Ramos cells were maintained as described above.
The scFv clones were expressed in large scale and purified as monomer fraction by SEC fractionation. The natural CXCR4^+ expressing cell lines Jurkat and Ramos were harvested from the culture flasks, washed 2 times with PBS supplemented with 0.2% BSA and 0.09% NaN3 buffer and aliquoted at 1×10^5 cells per well into V-shaped 96-well plates (Greiner Bio-One, Frickenhausen, Germany). Cells were pelleted by centrifugation (400 g, 5 min) and then incubated for 60 min at 4° C. with 1 μg SDF-1α (PeproTech EC, London, UK) and 50 μl scFv diluted to 10 μg/ml in PBS supplemented with 0.2% BSA and 0.09% NaN3 buffer, both added at the same time to the cells. A sample without ligand or 157 μg AMD3100 served as control for the specificity of CXCR4 since AMD3100 only binds to this receptor. AMD3100 was added simultaneously with the scFv to the cells. […]

T1 sequence (P61073 whole entry): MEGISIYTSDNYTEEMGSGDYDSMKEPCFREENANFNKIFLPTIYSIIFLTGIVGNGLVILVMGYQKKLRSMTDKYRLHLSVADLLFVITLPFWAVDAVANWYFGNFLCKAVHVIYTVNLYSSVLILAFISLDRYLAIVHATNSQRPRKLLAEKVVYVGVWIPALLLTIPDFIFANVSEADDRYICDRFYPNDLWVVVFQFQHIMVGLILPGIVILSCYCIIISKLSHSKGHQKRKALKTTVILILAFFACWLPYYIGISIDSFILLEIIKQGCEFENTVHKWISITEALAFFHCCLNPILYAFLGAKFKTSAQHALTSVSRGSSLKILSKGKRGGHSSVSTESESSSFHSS

B1: C-9P21: human anti-CXCR4 antibody; scFv SEQ ID NO: 35; IgG1/kappa heavy chain SEQ ID NO: 108, light chain SEQ ID NO: 109 (antibody)
heavy: QVQLQESGGGLVHPGGSLRLSCAASGFTFSSYWMHWVRQAPGKGLVWVSRINSDGSSTSYADSVKGRFTISRDNAKNTLYLQMNSLRAEDTAVYYCARKILGVGARSRRYFDYWGQGTMVTVSS[human IgG1 constant region left out]
light: ETTLTQSPGTLSLSPGERATLSCRASQSVVSNYLAWYQQKPGQAPRLLISGASNRATGISDRFSGSGSGADFTLTISRVEPEDSAVYYCQQFDKSTWTFGQGTKVEIKRTVAAPSVFIFPPSDEQLKSGTASVVCLLNNFYPREAKVQWKVDNALQSGNSQESVTEQDSKDSTYSLSSTLTLSKADYEKHKVYACEVTHQGLSSPVTKSFNRGEC
modifications: antibody sequence
- specific binding to CCRF-CEM cell line ([1]; IgG 2 μg/ml (0.1 μg per 10^5 cells)): specific binding
- inhibition of antibody binding by SDF-1 ([1]; IgG, 4, 1, 0.5 μg SDF-1α, CCRF-CEM cells): inhibited by SDF-1
- inhibition of cell migration ([2]; scFv concentration 20 μg/ml (0.7 μM)): 100%
- IC50 (antibody concentration leading to 50% inhibition of cell migration) ([2]; scFv cross-linked with anti-cMyc antibody, 0.15 nM SDF-1α): 2.9 µg/mL
- IC50 ([2]; scFv format, molar equivalent of 2.9 μg/ml): ~100 nM
- binding to all cell types tested [3]: excellent binding
